Where a chain is given by its changes, count along the chain named. Names and notes keep the numbering of the source. These are yes or no findings as the source states them, for the method shown. Binding seen in cells or lysates may run through a third protein. Some binding calls cover weakened binding; strength is not graded here. Tags and fused reporters may be left off the sequences shown.
Key:
[1] = biological target: T1, TRAF6(C70A), catalytically deficient RING domain mutant, FLAG tagged (UniProt Q9Y4K3); test: co-IP; proteins co-expressed in HEK293T cells; TRAFs (TRAF6, TRAF6(C70A), TRAF2) pulled down from total lysates; western blotting
T1 sequence: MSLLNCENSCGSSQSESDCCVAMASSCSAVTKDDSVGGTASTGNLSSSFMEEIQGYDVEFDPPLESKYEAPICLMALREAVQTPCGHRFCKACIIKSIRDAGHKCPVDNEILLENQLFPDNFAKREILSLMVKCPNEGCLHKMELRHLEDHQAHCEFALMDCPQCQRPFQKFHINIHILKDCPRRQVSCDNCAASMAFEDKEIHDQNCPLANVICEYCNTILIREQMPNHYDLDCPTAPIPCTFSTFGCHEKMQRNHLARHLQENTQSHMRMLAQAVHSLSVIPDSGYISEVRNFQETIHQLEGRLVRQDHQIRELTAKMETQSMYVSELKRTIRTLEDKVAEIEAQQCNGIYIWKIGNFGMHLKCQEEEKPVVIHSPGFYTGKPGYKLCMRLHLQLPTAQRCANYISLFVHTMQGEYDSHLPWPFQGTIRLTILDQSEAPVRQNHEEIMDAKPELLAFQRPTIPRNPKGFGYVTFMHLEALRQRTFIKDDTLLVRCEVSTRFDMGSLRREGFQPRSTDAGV

Sequences of proteins named here, by UniProt entry; tags and fusion partners are left off. A change or cut given only in a name is not applied to a line headed by its entry. A line that says so, or that is headed by a name, gives the form on record, which may keep a tag or linker. Residues count along the entry.
UniProt P37173: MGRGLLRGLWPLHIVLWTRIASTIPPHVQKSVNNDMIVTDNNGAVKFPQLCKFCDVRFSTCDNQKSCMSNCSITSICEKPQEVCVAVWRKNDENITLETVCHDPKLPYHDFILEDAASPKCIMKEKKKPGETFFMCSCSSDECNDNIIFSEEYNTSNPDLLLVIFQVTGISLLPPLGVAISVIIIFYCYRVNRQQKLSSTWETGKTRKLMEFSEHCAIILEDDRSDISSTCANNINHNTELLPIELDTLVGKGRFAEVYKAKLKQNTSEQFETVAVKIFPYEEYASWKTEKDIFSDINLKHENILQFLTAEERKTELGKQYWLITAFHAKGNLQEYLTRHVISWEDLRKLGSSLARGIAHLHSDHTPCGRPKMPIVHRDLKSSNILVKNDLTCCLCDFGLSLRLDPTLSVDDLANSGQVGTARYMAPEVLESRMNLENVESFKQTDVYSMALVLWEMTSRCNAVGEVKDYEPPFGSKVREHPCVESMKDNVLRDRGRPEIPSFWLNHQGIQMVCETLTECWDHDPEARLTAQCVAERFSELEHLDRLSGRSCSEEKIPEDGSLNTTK
TGF-β type II receptor (TβRII), FLAG tagged, expressed in HEK293T cells: residues 23-567 of P37173
GST-tagged cytoplasmic domain of TβRII: residues 188-567 of P37173

[2] = biological target: T2, FLAG-TTRAP, transiently expressed in HEK293T cells (UniProt O95551); test: co-IP; proteins co-expressed in HEK293T cells; TTRAP precipitated from the lysates (FLAG); western blotting; in one panel cells treated with 0.5 µM (5Z)-7-oxozeaenol
T2 sequence: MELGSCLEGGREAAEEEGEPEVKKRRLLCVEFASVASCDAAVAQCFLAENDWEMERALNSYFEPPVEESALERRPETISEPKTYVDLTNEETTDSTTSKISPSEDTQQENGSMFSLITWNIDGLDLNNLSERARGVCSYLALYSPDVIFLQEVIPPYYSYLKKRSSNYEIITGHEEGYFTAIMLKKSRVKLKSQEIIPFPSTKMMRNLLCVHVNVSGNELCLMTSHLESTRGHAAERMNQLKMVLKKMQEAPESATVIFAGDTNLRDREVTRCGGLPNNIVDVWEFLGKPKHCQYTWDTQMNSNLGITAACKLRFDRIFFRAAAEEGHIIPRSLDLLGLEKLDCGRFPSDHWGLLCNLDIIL

[3] = biological target: T3, FLAG epitope tagged TTRAP (TRAF and TNF receptor associated protein), stably expressed in NMuMG cells (UniProt O95551); test: co-IP; FLAG-TTRAP precipitated from NMuMG cells stably expressing it after 180 minutes of TGF-β treatment; endogenous TAK1 detected by western blotting
T3 sequence: T2 sequence

[4] = biological target: T3, FLAG epitope tagged TTRAP (TRAF and TNF receptor associated protein), stably expressed in NMuMG cells; test: co-IP; FLAG-TTRAP precipitated with FLAG affinity beads from lysates of NMuMG cells stably expressing it, untreated or treated with TGF-β (4 ng/ml); endogenous partner detected by western blotting
[5] = biological target: TGF-β type II receptor (TβRII), FLAG tagged, expressed in HEK293T cells (UniProt P37173); test: co-IP; proteins co-expressed in HEK293T cells; TGF-β receptors precipitated from total lysates with a FLAG antibody; western blotting; with or without co-expressed TRAF6 or TRAF2
[6] = biological target: T4, FLAG-TAK1, expressed in HEK293T cells (UniProt O43318); test: co-IP; FLAG-TAK1 precipitated with a FLAG antibody from transfected HEK293T cells; western blotting; TRAF6 or TRAF2 co-expressed
T4 sequence: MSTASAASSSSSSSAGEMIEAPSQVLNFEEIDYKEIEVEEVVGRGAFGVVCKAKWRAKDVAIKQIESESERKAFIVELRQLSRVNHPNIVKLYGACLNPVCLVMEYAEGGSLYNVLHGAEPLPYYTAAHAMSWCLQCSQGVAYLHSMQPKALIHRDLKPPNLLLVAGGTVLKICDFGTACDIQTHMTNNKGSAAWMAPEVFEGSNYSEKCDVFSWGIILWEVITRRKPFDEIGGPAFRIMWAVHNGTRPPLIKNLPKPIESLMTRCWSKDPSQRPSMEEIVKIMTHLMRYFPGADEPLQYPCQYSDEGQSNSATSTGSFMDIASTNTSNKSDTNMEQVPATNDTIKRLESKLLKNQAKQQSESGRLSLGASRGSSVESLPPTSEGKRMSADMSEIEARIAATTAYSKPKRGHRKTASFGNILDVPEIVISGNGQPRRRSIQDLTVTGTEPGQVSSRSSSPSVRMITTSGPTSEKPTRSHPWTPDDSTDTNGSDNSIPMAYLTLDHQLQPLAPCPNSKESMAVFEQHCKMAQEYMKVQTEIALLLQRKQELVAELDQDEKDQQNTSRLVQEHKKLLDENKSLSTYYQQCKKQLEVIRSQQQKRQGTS

[7] = biological target: T5, TAB2 (TAK1 binding protein 2), expressed in HEK293T cells (UniProt Q9NYJ8); test: co-IP; TAB2 precipitated from transfected HEK293T cells, with or without co-expressed TRAF6; western blotting
T5 sequence: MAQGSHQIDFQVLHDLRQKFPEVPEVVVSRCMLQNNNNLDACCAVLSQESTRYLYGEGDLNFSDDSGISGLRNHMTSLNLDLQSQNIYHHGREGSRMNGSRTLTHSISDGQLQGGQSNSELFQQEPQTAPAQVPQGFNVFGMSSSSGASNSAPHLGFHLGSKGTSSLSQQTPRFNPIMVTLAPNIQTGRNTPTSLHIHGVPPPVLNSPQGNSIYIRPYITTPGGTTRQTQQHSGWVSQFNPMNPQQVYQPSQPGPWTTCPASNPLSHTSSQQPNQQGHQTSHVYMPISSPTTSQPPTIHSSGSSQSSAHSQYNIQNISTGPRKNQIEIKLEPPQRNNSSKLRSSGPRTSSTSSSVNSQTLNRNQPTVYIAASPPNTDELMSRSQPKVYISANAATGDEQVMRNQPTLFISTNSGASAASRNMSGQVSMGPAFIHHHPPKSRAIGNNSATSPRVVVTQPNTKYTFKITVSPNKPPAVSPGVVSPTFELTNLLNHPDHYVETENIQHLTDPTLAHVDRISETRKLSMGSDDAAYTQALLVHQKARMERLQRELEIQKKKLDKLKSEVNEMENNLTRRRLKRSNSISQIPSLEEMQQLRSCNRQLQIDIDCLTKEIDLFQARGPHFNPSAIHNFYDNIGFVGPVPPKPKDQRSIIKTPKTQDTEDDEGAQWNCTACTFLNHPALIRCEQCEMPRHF

[8] = biological target: T6, HA epitope tagged TAK1 (TGF-β-activated kinase 1), wild type (UniProt O43318); test: co-IP; TRAF6 or TAK1 precipitated from transfected HEK293T cells; co-precipitating TTRAP fragments detected by western blotting
T6 sequence: T4 sequence

[9] = biological target: T7, GST-tagged cytoplasmic domain of TβRI (UniProt P36897); test: pull-down; GST-tagged receptor cytoplasmic domains immobilized on glutathione beads; HA-TTRAP made in rabbit reticulocyte lysate; western blotting; only the target purified
T7 sequence: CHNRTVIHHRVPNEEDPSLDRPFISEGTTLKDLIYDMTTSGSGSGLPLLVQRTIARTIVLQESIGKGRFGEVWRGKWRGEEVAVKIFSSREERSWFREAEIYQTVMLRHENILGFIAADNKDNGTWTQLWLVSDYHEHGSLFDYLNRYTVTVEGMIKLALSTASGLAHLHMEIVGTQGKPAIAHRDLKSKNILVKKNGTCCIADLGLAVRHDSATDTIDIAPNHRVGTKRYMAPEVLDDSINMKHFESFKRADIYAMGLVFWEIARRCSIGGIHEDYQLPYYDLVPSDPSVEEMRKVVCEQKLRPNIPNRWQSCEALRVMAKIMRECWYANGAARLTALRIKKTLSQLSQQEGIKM

[10] = biological target: GST-tagged cytoplasmic domain of TβRII (UniProt P37173); test: as above

B1: HA epitope tagged TAK1 (TGF-β-activated kinase 1), wild type (enzyme, UniProt O43318 1-606)
chain: T4 sequence
binding [1]: binds | binding [2]: binds

B2: HA-TAK1 E39G point mutant (catalytically active) (enzyme, UniProt O43318 1-606)
chain: T4 sequence with E39G
binding [2]: binds

B3: HA-TAK1 with lysine-34 replaced by arginine (enzyme, UniProt O43318 1-606)
chain: T4 sequence with K34R
binding [2]: binds

B4: endogenous TAK1 of NMuMG cells (enzyme, UniProt Q62073 1-579)
chain: MSTASAASSSSSSSASEMIEAPSQVLNFEEIDYKEIEVEEVVGRGAFGVVCKAKWRAKDVAIKQIESESERKAFIVELRQLSRVNHPNIVKLYGACLNPVCLVMEYAEGGSLYNVLHGAEPLPYYTAAHAMSWCLQCSQGVAYLHSMQPKALIHRDLKPPNLLLVAGGTVLKICDFGTACDIQTHMTNNKGSAAWMAPEVFEGSNYSEKCDVFSWGIILWEVITRRKPFDEIGGPAFRIMWAVHNGTRPPLIKNLPKPIESLMTRCWSKDPSQRPSMEEIVKIMTHLMRYFPGADEPLQYPCQYSDEGQSNSATSTGSFMDIASTNTSNKSDTNMEQVPATNDTIKRLESKLLKNQAKQQSESGRLSLGASRGSSVESLPPTSEGKRMSADMSEIEARIVATAGNGQPRRRSIQDLTVTGTEPGQVSSRSSSPSVRMITTSGPTSEKPARSHPWTPDDSTDTNGSDNSIPMAYLTLDHQLQPLAPCPNSKESMAVFEQHCKMAQEYMKVQTEIALLLQRKQELVAELDQDEKDQQNTSRLVQEHKKLLDENKSLSTYYQQCKKQLEVIRSQQQKRQGTS
binding [3]: binds weakly | binding [4]: binds

B5: HA-TTRAP, transiently expressed in HEK293T cells (protein, UniProt O95551 1-362)
chain: T2 sequence
binding [5]: binds | binding [6]: binds | binding [1]: binds | binding [7]: binds

B6: N-terminal 1-123 aa segment of TTRAP (domain or fragment, UniProt O95551 1-123)
chain: MELGSCLEGGREAAEEEGEPEVKKRRLLCVEFASVASCDAAVAQCFLAENDWEMERALNSYFEPPVEESALERRPETISEPKTYVDLTNEETTDSTTSKISPSEDTQQENGSMFSLITWNIDG
binding [8]: binds

B7: HA-tagged TTRAP synthesized in rabbit reticulocyte lysate (protein, UniProt O95551 1-362)
chain: T2 sequence
binding [9]: binds | binding [10]: binds

B8: HA-TAK1 ATP binding site mutant (K63W) (enzyme, UniProt O43318 1-606)
chain: T4 sequence with K63W
binding [2]: no binding

B9: HA-TAK1 activation loop mutant (T184,187V) (enzyme, UniProt O43318 1-606)
chain: T4 sequence with T184V, T187V
binding [2]: no binding

B10: HA-TAK1 activation loop mutant (S192A) (enzyme, UniProt O43318 1-606)
chain: T4 sequence with S192A
binding [2]: no binding

Source: PMC3182262
